Experimental data: PubChem BioAssay AID504333 (National Center for Advancing Translational Sciences (NCATS), 2011)
Among all 360,000 compounds or so, about 16,000 (4.4%) were called active. Inconclusive results, whose numbers are uncertain, are shown with a selection of clear calls. The call rests on the fitted dose curve; in most records, active means well fitted inhibition curve with a large enough effect; inconclusive means small, poorly fitted or top-dose-only effect; inactive means no such curve, though single readings can be large or run the other way. A potency beside an inconclusive call is a rough fit, not a confirmed value.

What follows are molecules tested against Bromodomain adjacent to zinc finger domain protein 2B (Homo sapiens) (UniProt Q9UIF8) (assay: qHTS Assay for Inhibitors of BAZ2B). Conditions: AlphaScreen BAZ2B-H3K14Ac peptide displacement; series mostly up to 114 µM.
Method in brief: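 BAZ2B 50 nM plus b-H3(5-23)K14Ac 50 nM, PBS pH 7.4/0.01% Tween-20, 30 min RT; compound added (max 110 uM), 30 min RT; streptavidin donor/Ni-chelate acceptor beads 10 ug/mL final, 20 min dark; AlphaScreen read.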
Further: nearly all actives have a fitted effect of over 60% in size.
Potency means the concentration at half of the fitted maximal effect; tags describe the fitted curve by direction and shape.

Sequence of UniProt Q9UIF8 (Q9UIF8 whole entry, looked up, the tested form may be a part): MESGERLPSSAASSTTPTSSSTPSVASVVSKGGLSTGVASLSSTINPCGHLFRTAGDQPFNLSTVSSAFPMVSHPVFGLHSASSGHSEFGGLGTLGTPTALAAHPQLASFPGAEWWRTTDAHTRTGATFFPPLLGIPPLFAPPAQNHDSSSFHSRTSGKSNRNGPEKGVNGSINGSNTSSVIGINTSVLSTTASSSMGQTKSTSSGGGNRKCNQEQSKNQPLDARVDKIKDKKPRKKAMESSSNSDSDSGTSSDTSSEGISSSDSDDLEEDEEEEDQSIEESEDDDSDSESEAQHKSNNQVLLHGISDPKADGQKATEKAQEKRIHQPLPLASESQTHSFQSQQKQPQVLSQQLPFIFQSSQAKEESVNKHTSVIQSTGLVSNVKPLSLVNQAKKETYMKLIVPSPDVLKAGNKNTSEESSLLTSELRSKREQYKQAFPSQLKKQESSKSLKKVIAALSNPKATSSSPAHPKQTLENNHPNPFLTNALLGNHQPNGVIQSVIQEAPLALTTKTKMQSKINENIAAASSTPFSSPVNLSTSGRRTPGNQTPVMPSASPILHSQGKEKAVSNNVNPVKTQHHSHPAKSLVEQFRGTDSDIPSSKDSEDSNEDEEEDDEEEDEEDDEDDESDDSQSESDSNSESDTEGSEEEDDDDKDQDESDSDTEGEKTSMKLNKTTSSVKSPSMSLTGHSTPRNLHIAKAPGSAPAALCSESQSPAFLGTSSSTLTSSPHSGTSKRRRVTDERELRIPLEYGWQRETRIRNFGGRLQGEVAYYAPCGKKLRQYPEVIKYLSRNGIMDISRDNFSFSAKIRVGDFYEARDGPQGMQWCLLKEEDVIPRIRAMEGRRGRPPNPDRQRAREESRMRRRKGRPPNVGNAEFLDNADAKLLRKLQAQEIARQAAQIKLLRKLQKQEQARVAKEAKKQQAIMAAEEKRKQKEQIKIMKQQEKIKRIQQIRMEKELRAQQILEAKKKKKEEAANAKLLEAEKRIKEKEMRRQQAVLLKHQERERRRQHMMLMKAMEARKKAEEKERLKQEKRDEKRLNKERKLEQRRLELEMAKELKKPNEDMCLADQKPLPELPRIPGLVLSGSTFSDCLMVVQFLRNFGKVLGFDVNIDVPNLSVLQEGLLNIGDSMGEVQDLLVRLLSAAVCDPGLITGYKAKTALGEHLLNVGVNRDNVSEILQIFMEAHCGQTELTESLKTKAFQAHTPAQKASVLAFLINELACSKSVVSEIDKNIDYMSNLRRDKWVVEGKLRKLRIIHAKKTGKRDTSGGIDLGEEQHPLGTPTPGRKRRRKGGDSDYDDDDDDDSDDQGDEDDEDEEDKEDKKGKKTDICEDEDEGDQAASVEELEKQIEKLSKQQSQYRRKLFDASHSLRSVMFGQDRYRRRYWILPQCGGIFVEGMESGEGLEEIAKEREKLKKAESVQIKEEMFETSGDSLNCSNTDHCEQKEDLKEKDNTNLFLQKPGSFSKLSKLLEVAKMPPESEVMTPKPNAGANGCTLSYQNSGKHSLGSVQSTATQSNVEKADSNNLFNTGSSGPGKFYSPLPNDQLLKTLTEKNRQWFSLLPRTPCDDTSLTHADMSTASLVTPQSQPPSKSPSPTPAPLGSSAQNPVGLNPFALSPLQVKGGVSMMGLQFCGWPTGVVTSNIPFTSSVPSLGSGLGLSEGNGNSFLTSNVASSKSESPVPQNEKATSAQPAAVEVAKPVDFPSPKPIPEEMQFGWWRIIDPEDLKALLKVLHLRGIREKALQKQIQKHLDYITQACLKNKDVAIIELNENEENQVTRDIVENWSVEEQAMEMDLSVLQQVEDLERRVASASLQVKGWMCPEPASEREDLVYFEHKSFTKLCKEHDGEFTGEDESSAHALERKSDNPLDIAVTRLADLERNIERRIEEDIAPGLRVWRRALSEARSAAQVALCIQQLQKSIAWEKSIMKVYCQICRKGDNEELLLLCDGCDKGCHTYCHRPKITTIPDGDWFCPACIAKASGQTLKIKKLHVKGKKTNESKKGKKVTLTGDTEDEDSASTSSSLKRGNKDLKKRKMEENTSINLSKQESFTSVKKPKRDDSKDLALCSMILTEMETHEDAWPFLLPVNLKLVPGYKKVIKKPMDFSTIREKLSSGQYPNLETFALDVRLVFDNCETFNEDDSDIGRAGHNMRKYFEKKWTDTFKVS

Row | SMILES | Potency
1 | Cc1ccc(Oc2ccc(/C=N/O)cn2)cc1 | inconclusive: 31.6 µM [inhibitor, partial curve, poor fit]
2 | CSc1nn(-c2ccc(C(=O)OC(C(=O)NC(N)=O)C(C)C)cc2)c(=S)s1 (configuration not stated) | inconclusive: 89.1 µM [inhibitor, single point]
3 | Cc1c([C@H]2[C@@H](CC#N)C2(C)C)c2ccccc2n1C | active: 22.4 µM
4 | C=CCn1c(SCC(=O)Nc2ccccc2OC)nnc1-c1ccccn1 | inconclusive: 89.1 µM [inhibitor, single point]
5 | CCCCn1nnnc1NCc1ccc(N2CCCC2)cc1 | inconclusive: 89.1 µM [inhibitor, single point]
6 | CCN1C(=O)[C@H]2[C@@H](c3ccc(C)cc3)N3C(=O)N(c4cccc(F)c4)C(=O)[C@@]3(C)[C@H]2C1=O | inactive
7 | O=C(NCCNC(=O)c1ccc(Br)o1)c1ccc(Br)o1 | inconclusive: 3.16 µM [inhibitor, single point]
8 | CCCCN(C(=O)c1cccc(-n2cccc2)c1)c1c(N)n(CCC)c(=O)[nH]c1=O | active: 44.7 µM
9 | COCCn1c(=O)[nH]c2cc(C(=O)Nc3cc(OC)c(OC)c(OC)c3)ccc2c1=O | inactive
10 | Cc1cccc(C)c1OCC(=O)N(Cc1ccccc1F)C1CCS(=O)(=O)C1 (configuration not stated) | inactive
11 | CCOC(=O)CSc1nnc(-c2cccnc2)n1C | inconclusive: 0.794 µM [inhibitor, full curve, poor fit]
12 | COc1ccc(C(=O)N2CC(=O)Nc3ccc(Br)cc3C2c2ccc(F)cc2)cc1OC (configuration not stated) | inconclusive: 89.1 µM [inhibitor, single point]
13 | O=C(Nc1ccc2c(c1)OCCO2)c1cccnc1 | inconclusive: 89.1 µM [inhibitor, single point]
14 | CN(C=[N+](C)C)c1cccc2c1C(=O)c1ccccc1C2=O | active: 17.8 µM
15 | Cc1ccc(-c2c3c(=O)n(C)c(=O)n(C)c3cn2Cc2ccccc2)cc1 | inconclusive: 79.4 µM [inhibitor, single point]
16 | O=C(c1ccc(CS(=O)Cc2ccc(Cl)cc2)o1)N1CCN(c2cccc(Cl)c2)CC1 (configuration not stated) | inconclusive: 12.6 µM [inhibitor, full curve]
17 | O=C(NCc1ccco1)c1ccc(-c2ccccc2Cl)o1 | inconclusive: 70.8 µM [inhibitor, single point]
18 | O=C(NCC(c1cccnc1)N1CCN(c2ccccc2F)CC1)C1CCCCC1 (configuration not stated) | inconclusive: 3.16 µM [inhibitor, full curve, poor fit]
19 | O=C(/C=C/c1ccco1)NCc1ccc(F)cc1 | inconclusive: 56.2 µM [inhibitor, partial curve, poor fit]
20 | CCCCOC(=O)n1ccc(C(=O)Nc2ccccc2OC)n1 | inactive
21 | O=C(CCC(=O)c1ccccc1)NCCc1c[nH]c2ccccc12 | inconclusive: 50.1 µM [inhibitor, partial curve]

Row | SMILES | Potency
22 | CCNc1ccc(C(=O)OCC(=O)NC(=O)NCC(C)C)cc1[N+](=O)[O-] | inactive
23 | Cc1ccc(-c2cc3c(nn2)-c2ccccc2C3=O)cc1 | inconclusive: 39.8 µM [inhibitor, partial curve]
24 | CC1CC(=O)c2cn3c(nc2C1)nc1ccccc13 (configuration not stated) | inconclusive: 12.6 µM [inhibitor, single point]
25 | COc1ccc(OCCNc2c([N+](=O)[O-])c(=O)oc3ccccc23)cc1 | inconclusive: 79.4 µM [inhibitor, single point]
26 | CCOc1ccc(C(=O)Nc2nnc(S(=O)(=O)Nc3ccccc3C)s2)cc1 | inactive
27 | CN1/C(=C\C(=O)Nc2ccc(F)cc2)C(C)(C)c2ccccc21 | inconclusive: 89.1 µM [inhibitor, single point]
28 | Cn1c(CNS(=O)(=O)c2cccc(Cl)c2)cc(=O)n(C)c1=O | inconclusive: 100 µM [inhibitor, partial curve]
29 | COc1ccc(O)c(-c2cc(-c3ccc(F)cc3)n[nH]2)c1 | inconclusive: 44.7 µM [inhibitor, partial curve]
30 | CCCOc1ccc(NC(=O)CC2C(=O)N(CC)C(=S)N2CCCN2CCN(Cc3ccccc3)CC2)cc1 (configuration not stated) | inconclusive: 44.7 µM [inhibitor, partial curve]
31 | CC(=O)c1ccc(S(=O)(=O)Nc2ccc(-c3cn4c(C)csc4n3)cc2)cc1 | inconclusive: 44.7 µM [inhibitor, partial curve]
32 | COc1ccc(C)cc1NC(c1nnc(-c2ccccc2)o1)c1ccc(F)cc1Cl (configuration not stated) | inconclusive: 11.2 µM [inhibitor, full curve, poor fit]
33 | COc1ccc(NC(=O)c2cc(-c3ccccc3)on2)cc1 | inconclusive: 89.1 µM [inhibitor, single point]
34 | C/C(=N\NC(=O)c1nnn(-c2nonc2N)c1CN1CCCCC1)c1ccccc1O | active: 44.7 µM
35 | CCOc1cc(NC(=O)c2ccco2)c(OCC)cc1NC(=O)Cc1cccc(OC)c1 | inconclusive: 22.4 µM [inhibitor, full curve]
36 | N#Cc1ccccc1NC(=O)CSc1nc(-c2ccccc2)cc(C(F)(F)F)c1C#N | inactive
37 | COc1cccc(CNC(=O)CCCc2cn(C)c3ccccc23)c1 | inconclusive: 44.7 µM [inhibitor, partial curve]
38 | Cc1ccc(/C=C/C(=O)NCC2COc3ccccc3O2)o1 (configuration not stated) | inconclusive: 70.8 µM [inhibitor, single point]
39 | Cc1ccc(Cn2c(CN3CCC(C(=O)NCc4cccnc4)CC3)cc3ccccc32)cc1 | inconclusive: 39.8 µM [inhibitor, partial curve]
40 | COc1cc(/C=N/Nc2ccc(Cl)c(C(=O)O)c2)ccc1OC(=O)c1ccco1 | inconclusive: 79.4 µM [inhibitor, partial curve]
41 | N#C/C(=C\c1ccc(OCc2cccc(C(=O)O)c2)cc1)C(=O)NCc1ccco1 | inconclusive: 89.1 µM [inhibitor, single point]
42 | CNc1cc(N2CCCCCC2)ccc1[N+](=O)[O-] | inconclusive: 25.1 µM [inhibitor, single point]
